Measured values from the supplement of paper PMC11417369.
This is one part of the list.

The sequences below were run on PfHDP1 homeodomain (GST-tagged) (assay: gcPBM binding intensity (ln(normalized median fluorescence intensity)); higher = stronger DNA binding).
Outline: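 The binding buffer was 1× PBS containing 1% milk, 0.2 mg/ml BSA, 0.5% salmon testes DNA and 0.03% Triton X-100. In it, GST-tagged P. falciparum DNA-binding domains expressed in E. coli were applied for 1 h to an Agilent 4 × 180k array of primer-extended double-stranded 36-bp intergenic genomic probes plus negative controls. Binding intensity, read with Alexa488 anti-GST antibody and a 488 nm scan, is the highest Masliner-normalised natural-log median intensity across replicate spots of either probe orientation.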

Which “gcPBM binding intensity (ln)” value does the source give for “CTGTTCAAAATATGAACACACACATATATATATATA [CACACA_site8638]” here?
The value was 9.4.

For “TTAATAGTGGAAATATGTACATAATTTTGGTCTTTT [XGTACX_site1664]”, which “gcPBM binding intensity (ln)” value is on record?
The value was 6.5.

Which “gcPBM binding intensity (ln)” value does the source give for “CCATATTTAATAAAATGTACTCATTCTTTTATTTTA [XGTACX_site7802]” here?
The value was 6.47.

“ACATATGGCACATATGTACACACGTATAGATAATAT [CACACA_site2024]” was tested. Which “gcPBM binding intensity (ln)” value did it give?
The value was 7.07.

How did the “gcPBM binding intensity (ln)” value turn out when “CTAAAAAAATAATAAAGTACACAAACGAATATATAA [XGTACX_site668]” was run?
Its value is 6.89.

Which “gcPBM binding intensity (ln)” value does the source give for “TTGAAAAATCAGCACACACACAAATACATACATATT [CACACA_site7505]” here?
Its value is 6.58.

How did the “gcPBM binding intensity (ln)” value turn out when “TTTTTTTTTTTTTTTGCACACTATATTTAATATAAG [CACACA_site2444]” was run?
Its value is 9.31.

How did the “gcPBM binding intensity (ln)” value turn out when “CTTTTTTGGTACATCACACATTTTTACATTCCCTTT [CACACA_site4957]” was run?
The value was 6.79.

With “TAAAAAAAAATAAAAAGTACATATATATATATATAT [XGTACX_site1155]” as the sequence, how does the “gcPBM binding intensity (ln)” value read?
Its value is 9.38.

With “AATGGAAAAATAGGCACACACACATAAATACAGATA [CACACA_site4844]” as the sequence, how does the “gcPBM binding intensity (ln)” value read?
Its value is 6.96.

“AGTGCTACTCATGATTGAATAGAGGAAAAGGCGGTG [GTGCAC_negctrl_site49]” was tested. Which “gcPBM binding intensity (ln)” value did it give?
Its value is 6.21.

Which “gcPBM binding intensity (ln)” value does the source give for “AATATGAAACAAGACGCACACATAAATAAATAAATA [CACACA_site326]” here?
Its value is 6.73.

Which “gcPBM binding intensity (ln)” value does the source give for “CACATAAAAAAATAAACACACATATGTATATAAATA [CACACA_site7483]” here?
Its value is 6.63.

With “CTTTAAATGATGTAAACACACACATATACATTATTA [CACACA_site9035]” as the sequence, how does the “gcPBM binding intensity (ln)” value read?
Its value is 6.5.

Which “gcPBM binding intensity (ln)” value does the source give for “TATAAATGATTAATTTGTACATATTTTACTTAATTG [XGTACX_site5271]” here?
The value was 6.28.

Which “gcPBM binding intensity (ln)” value does the source give for “CCATTCAAATTTCGCACACACATACAAAAAAAAAAA [CACACA_site3093]” here?
The value was 7.35.

With “TAAATAAATAAATATATATATATATATATATATATA [XGTACX_negctrl_site70]” as the sequence, how does the “gcPBM binding intensity (ln)” value read?
The value was 9.39.

For “TTGATGATATCATTTTGTACTTATACGTATTTAAAA [XGTACX_site148]”, which “gcPBM binding intensity (ln)” value is on record?
The value was 6.77.

“ACAAAATATTTTTCTTCACACATCCATTCAACATTT [CACACA_site5886]” was tested. Which “gcPBM binding intensity (ln)” value did it give?
Its value is 6.9.

How did the “gcPBM binding intensity (ln)” value turn out when “ACAAAAAAAAAAAAAATACACACACATAAAAAAAAA [TGCATGCA_negctrl_site333]” was run?
Its value is 6.2.

With “TATATATATATATATATTAATAATTAATATAAAAGA [XGTACX_negctrl_site32]” as the sequence, how does the “gcPBM binding intensity (ln)” value read?
The value was 9.

“AATCAAAACATTAAAAAGAAAAAATATATATATATA [CACACA_negctrl_site366]” was tested. Which “gcPBM binding intensity (ln)” value did it give?
Its value is 9.03.

Which “gcPBM binding intensity (ln)” value does the source give for “CCACTATATAAAATCACACATTTATATTATACATAT [CACACA_site4570]” here?
Its value is 6.55.

How did the “gcPBM binding intensity (ln)” value turn out when “ATAGATGCATATTATACACACATATGTAAATACATT [CACACA_site4691]” was run?
Its value is 7.34.

How did the “gcPBM binding intensity (ln)” value turn out when “ATAATAGTTAAATGTACACACTAACTACATGGAATA [CACACA_site5753]” was run?
The value was 6.43.

How did the “gcPBM binding intensity (ln)” value turn out when “TTGAAGTTAATAAAAACTTTATACATGAAATTATTT [CACACA_negctrl_site684]” was run?
The value was 5.89.

Which “gcPBM binding intensity (ln)” value does the source give for “AAAAAAAGAAATTAGGTGCATAGCATTAACCGATAA [GTGCAC_site9582]” here?
Its value is 9.48.

With “TTTATTTTAATTTATTGTACATTGTTATCAAGTGCA [XGTACX_site1110]” as the sequence, how does the “gcPBM binding intensity (ln)” value read?
The value was 6.47.

For “TATTGGTAATGTAAATGTACATATAGATATTTACAT [XGTACX_site1922]”, which “gcPBM binding intensity (ln)” value is on record?
Its value is 6.19.

How did the “gcPBM binding intensity (ln)” value turn out when “GATTCCTTTAACCCTGCACACATACATACATTTATA [CACACA_site9308]” was run?
The value was 8.55.

For “TATATTTCTTATTACATACACACATATACATATATG [CACACA_site3202]”, which “gcPBM binding intensity (ln)” value is on record?
Its value is 7.01.

For “TAATAATATAATAATACACACTCATTATATATATAA [CACACA_site6045]”, which “gcPBM binding intensity (ln)” value is on record?
The value was 6.49.

With “TATATATTTTTTTCATGTACATATAAATTAATTAAA [XGTACX_site8680]” as the sequence, how does the “gcPBM binding intensity (ln)” value read?
The value was 6.77.

“ACACAAAAAATTAAGTGTACTCATCAAGAAAAAAAA [XGTACX_site3456]” was tested. Which “gcPBM binding intensity (ln)” value did it give?
The value was 6.25.

With “ATAAAATACCCTGATCTATTACATATTATATTCTGC [GTGCAC_negctrl_site311]” as the sequence, how does the “gcPBM binding intensity (ln)” value read?
Its value is 6.3.

How did the “gcPBM binding intensity (ln)” value turn out when “ATAGGAAAAAGTATTGGTACACATACATATACGTTA [XGTACX_site5819]” was run?
The value was 6.31.

For “TTATATGTTTTGTGTACACAATTTATTAAATTAATA [CACACA_site5645]”, which “gcPBM binding intensity (ln)” value is on record?
Its value is 8.03.

For “TACATATTTTTCTTTTCACACATGGAAAAAAAAGGT [CACACA_site5146]”, which “gcPBM binding intensity (ln)” value is on record?
Its value is 6.41.

Which “gcPBM binding intensity (ln)” value does the source give for “TATTTTTTTTTTCACTGTACATACAACAACAAATAT [XGTACX_site8835]” here?
Its value is 7.04.

Which “gcPBM binding intensity (ln)” value does the source give for “CCCTTAATTTAAAACACACAAACAAATAAGTTAGTT [CACACA_site3793]” here?
The value was 6.39.

How did the “gcPBM binding intensity (ln)” value turn out when “AATATATTTATTATAACACACACATATATATATTAT [CACACA_site8264]” was run?
The value was 6.6.

How did the “gcPBM binding intensity (ln)” value turn out when “ATATATATATATATATATATATATATATATAAGTGG [XGTACX_negctrl_site90]” was run?
The value was 9.25.

“TATTAATTCATTTTTTTTTTTTTTTTTTTTTTTTTT [CACACA_negctrl_site1215]” was tested. Which “gcPBM binding intensity (ln)” value did it give?
Its value is 7.1.

Which “gcPBM binding intensity (ln)” value does the source give for “GATTTAATAGATACGAGTACAGAAATTGTATACATA [XGTACX_site7563]” here?
The value was 6.71.

Which “gcPBM binding intensity (ln)” value does the source give for “TTCATATTTCATATATGTACTTATGTTCAATATAGT [XGTACX_site3811]” here?
Its value is 6.18.

For “TTTTTTATGTTCAATTGTACATATACATATATATAT [XGTACX_site6013]”, which “gcPBM binding intensity (ln)” value is on record?
Its value is 8.1.

For “AAAATAAGCCATATACGTACATACATATATAAATAT [XGTACX_site4197]”, which “gcPBM binding intensity (ln)” value is on record?
Its value is 6.4.

“CAAACAATTAAACAAACACACATATACATGTATATA [CACACA_site2060]” was tested. Which “gcPBM binding intensity (ln)” value did it give?
Its value is 6.54.

How did the “gcPBM binding intensity (ln)” value turn out when “TAATTACACTTTAAAAGTACATATATAATAACATTA [XGTACX_site379]” was run?
The value was 6.35.

How did the “gcPBM binding intensity (ln)” value turn out when “TAATTTTCATGTTCATGTACTTAAATATAAGGTAAA [XGTACX_site3284]” was run?
Its value is 6.46.

“ATTCATAACAAAAAAAGTACTCAAAATAATAATAAA [XGTACX_site6079]” was tested. Which “gcPBM binding intensity (ln)” value did it give?
Its value is 6.53.

For “TGCCTTATTAAAAGAATTACACATATTTAATCGAAA [GTGCAC_negctrl_site153]”, which “gcPBM binding intensity (ln)” value is on record?
The value was 5.95.

How did the “gcPBM binding intensity (ln)” value turn out when “AAAAAAAAGGAAATAACACACATGTATATATTTATA [CACACA_site1606]” was run?
Its value is 6.3.

With “CACCATGTTAACAATACATGCATCACTATATAAATG [TGCATGCA_site36]” as the sequence, how does the “gcPBM binding intensity (ln)” value read?
Its value is 6.86.

How did the “gcPBM binding intensity (ln)” value turn out when “AAATATATTTTTAATAGTACAATATGAAAATTTCAT [XGTACX_site2562]” was run?
The value was 6.41.

With AGTAATTATTTTAGAGTGCATAGTTTTTTAATAAAT as the sequence, how does the “gcPBM binding intensity (ln)” value read?
The value was 7.44.
